Here are results for 52 compounds from PMC12040169 (PLOS Biology, 2025).

Some of the results follow.

In this assay the test system is T1, C. trachomatis L2/434/Bu expressing GFP (CTL2-GFP).
T1 construct: L2/434/Bu GFP intracellular growth in HeLa cells
Set-up: species or system HeLa; C. trachomatis total inclusion area by high-content imaging, normalised to DMSO. As to conditions: total inclusion area; 28.5 h, 10 µM; inhibitor. The method in brief: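 After bulk GFP and resorufin fluorescence reads, cells were fixed, stained with Hoechst and imaged by high-content microscopy. Inclusion area and number (GFP) stood in for chlamydial growth, nuclei count (Hoechst) for host cell viability. MICs were derived as for the bulk readout.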
Take `CCCN1CCN(Cc2cccc3c2ccn3S(=O)(=O)c2cccs2)CC1` [CBK116196T]: the “% of control remaining” value turned out to be 81.1251.

In the case of `Cc1cc(C)nc(N2CCC(CC(=O)N3CCN(C4CCCC4)CC3)CC2)n1` [CBK285957], the “% of control remaining” value turned out to be 107.628.

In the case of `CC(Oc1ccc(Cl)cc1Cl)C(=O)O/N=C(\N)c1ccccn1` (stereo not shown) [CBK264673], the “% of control remaining” value was 99.8149.

Regarding `Cn1c(=O)[nH]c(=O)c2c1nc(NC1CCCCC1)n2CCCc1ccccc1` [CBK269500], the “% of control remaining” value turned out to be 117.835.

As to `COc1cccc(NCc2nnc(SCC(=O)O)n2C2CCCCC2)c1` [CBK297499], the “% of control remaining” value was 79.7131.

In the case of `CCCCn1c(SC(C)C(N)=O)nc2cc(C(=O)OC)ccc2c1=O` (stereo not shown) [CBK305877], the “% of control remaining” value is 37.1243.

In the case of `Cc1ccccc1-c1ccccc1CC1(C(=O)N(C)C)CCN(C(=O)C2CCCCC2)CC1` [CBK285718], the “% of control remaining” value was 78.7236.

`CCn1cc(C(=O)NN)c(=O)c2cc(F)c(N3CCSCC3)cc21` [CBK307148]: the “% of control remaining” value amounted to 92.9628.

As to `Nc1nnc(CSc2cccc3cccnc23)o1` [CBK021397], the “% of control remaining” value stood at 92.4871.

As to `CCOc1ccc(S(=O)(=O)N2CCN(Cc3cccc(F)c3C)CC2)c2cccnc12` [CBK062794], the “% of control remaining” value amounted to 50.0481.

In the case of `CCOC(=O)C1CCN(S(=O)(=O)c2ccccc2)CC1` [CBK051091], the “% of control remaining” value is 102.192.

On to `CCCc1[nH]nc(O)c1CCc1ccccc1C(F)(F)F` [CBK075081], for which the “% of control remaining” value is listed as 61.5457.

Take `CCn1cc(S(=O)(=O)NC2(c3ccccc3)CCCC2)cn1` [CBK282767]: the “% of control remaining” value is listed as 127.53.

As for `CC(=O)N(CN1C(=O)CCC1=O)C(CC(C)C)C(=O)O` (stereo not shown) [CBK286553], the “% of control remaining” value is given as 67.8123.

On to `O=C(CSc1nnc(Cc2ccccc2)o1)N1c2ccccc2Sc2ccccc21` [CBK268008], for which the “% of control remaining” value worked out at 102.139.

Consider `O=C(c1cccc(-c2ccc(F)cc2)c1)N1CC(O)C1` [CBK281499], for which the “% of control remaining” value was determined as 102.908.

Consider `O=C(Cc1cccc(F)c1)N1CCOCC1` [CBK058928], for which the “% of control remaining” value was found to be 95.2962.

`COc1ccc(CN2CC(C(=O)O)CC2=O)cc1` (stereo not shown) [CBK267242]: the “% of control remaining” value is on record as 104.488.

`CN(C)S(=O)(=O)c1cccc(C(=O)N(Cc2ccc(F)cc2)Cc2ccco2)c1` [CBK267579]: the “% of control remaining” value is listed as 106.739.

Take `Cn1ccnc1CN1C[C@@H]2CCCN2C[C@@H]1Cc1ccccc1` [CBK283202]: the “% of control remaining” value is 107.436.

Regarding `Cc1csc(NS(=O)(=O)CC(C)C)n1` [CBK021434], the “% of control remaining” value was determined as 61.8485.

Turning to `O=C(NCCOc1ccc(F)cc1)c1cccc(-n2cccn2)c1` [CBK281596], the “% of control remaining” value turned out to be 124.035.

Take `CCOC(=O)CCCCSc1c(CC)c(C)nc2ccccc12` [CBK153458T]: the “% of control remaining” value came to 86.5565.

`CS(=O)(=O)N(CCc1ccccc1)CC(=O)O` [CBK281244]: the “% of control remaining” value came to 76.1317.

For the compound `COc1cc2c(cc1OC)C(C(=O)O)CC(=O)N2` (stereo not shown) [CBK218955], the “% of control remaining” value is given as 118.48.

In the case of `Cc1cc(C[C@@H]2COC[C@H]2NCc2ccc(Cl)cc2)on1` [CBK285402], the “% of control remaining” value is listed as 100.917.

In the case of `CC1CCCN(C(=O)c2ccc(-n3ccnc3)c(-n3cccc3)c2)C1` (stereo not shown) [CBK285370], the “% of control remaining” value was 94.5927.

`COc1ccc(CN[C@@H]2CCC[C@H]2Cc2cc(C)no2)cc1` [CBK285401]: the “% of control remaining” value was 78.2902.

For the compound `c1ccc(C[n+]2cn3cc(-c4ccccc4)nc3[n-]2)cc1` [CBK261654], the “% of control remaining” value stood at 105.316.

Regarding `CN(C)c1nc(Cl)nc(N(C)C#N)n1` [CBK025922], the “% of control remaining” value came to 89.9575.

As for `Cn1c(=O)c2[nH]c(CN3CCN(Cc4ccccc4)CC3)nc2n(C)c1=O` [CBK269519], the “% of control remaining” value was found to be 96.0924.

With `CC1CC(C(F)F)n2nc(C(=O)O)nc2N1` (stereo not shown) [CBK267636], the “% of control remaining” value stood at 115.98.

With `O=[N+]([O-])c1ccccc1S(=O)(=O)NCc1ccccn1` [CBK261751], the “% of control remaining” value was found to be 91.5026.

Consider `COc1ccc(C2(C(=O)NCc3c(F)cccc3F)CC2)cc1` [CBK149826], for which the “% of control remaining” value came to 68.6643.

Take `CCN(CC)CCN1CCN(c2cncc(-c3cccc(/C=C/C(=O)O)c3)n2)CC1` [CBK066097]: the “% of control remaining” value turned out to be 103.525.

With `CC(C)(c1ccccc1)c1ccc(OCC(=O)Nc2cccc(C(=O)O)c2)cc1` [CBK266014], the “% of control remaining” value stood at 84.2616.

With `COc1ccccc1CNC(=O)c1cccc(C)c1[N+](=O)[O-]` [CBK265703], the “% of control remaining” value worked out at 76.7397.

On to `COCCC(=O)NCC1Cc2cc(F)cc(-c3ccc(C(C)=O)s3)c2O1` (stereo not shown) [CBK306742], for which the “% of control remaining” value is 104.858.

With `CCN(CC)CCN(C(=O)c1cnn(C)c1C)C1CCS(=O)(=O)C1` (stereo not shown) [CBK305321], the “% of control remaining” value stood at 109.347.

For `C(=C\c1cccc(N2CCN(CCN3CCCC3)CC2)n1)/c1ccccc1` [CBK036853], the “% of control remaining” value turned out to be 119.69.

For the compound `COc1ccc(N2CCN(CC(O)COc3ccc4c(C)cc(=O)oc4c3)CC2)cc1` (stereo not shown) [CBK269847], the “% of control remaining” value came out at 100.22.

As to `COc1ccc(-c2nc(NC(=O)C3CC(=O)N(C)C3c3cccnc3)cnc2-c2cccc(C)c2)cc1` (stereo not shown) [CBK036692], the “% of control remaining” value is 116.828.

`COc1ccc(C(=O)Nc2cc(C)c3c(=O)oc4ccccc4c3n2)cc1OC` [CBK287442]: the “% of control remaining” value was found to be 126.648.

In the case of `Cc1ccc(CC2CCCN(C(=O)NCc3cnn(C)c3)C2)cc1` (stereo not shown) [CBK303990], the “% of control remaining” value came to 45.7797.

For `CSCCN(CC(=O)O)Cc1ccccc1` [CBK005712], the “% of control remaining” value is recorded as 73.4335.

As to `Cc1ccccc1OCC(O)CN1CCN(CCN2C(=O)c3cccc4cccc(c34)C2=O)CC1` (stereo not shown) [CBK278321C], the “% of control remaining” value is listed as 97.5533.

Take `COc1cc(C(=O)N2CCC(n3c(=O)[nH]c4c(C)cccc43)CC2)ccc1C` [CBK155372]: the “% of control remaining” value came out at 91.9423.

`Brc1ccc(-c2nc(CSc3nnnn3C3CCCCC3)no2)cc1` [CBK026913]: the “% of control remaining” value came to 109.879.

As to `COC[C@H]1CCCN1C(=O)CC[C@H]1CNC(=O)[C@@H]2[C@@H](CCN2C2CCCCC2)N1C` [CBK289039], the “% of control remaining” value came to 124.199.

Turning to `CCCCNC(=O)N1CCN(c2ccccc2Cl)CC1` [CBK043777], the “% of control remaining” value was found to be 95.1769.

`CCCCc1nnc(CC(C)C)o1` [CBK008679]: the “% of control remaining” value is given as 105.15.

Take `CN(C)S(=O)(=O)c1ccc(C(=O)C2=C(O)C(=O)N(CCN3CCOCC3)C2c2ccccc2)cc1` (stereo not shown) [CBK264540]: the “% of control remaining” value was found to be 93.7141.
